# About 9,900 (2.8%) of roughly 350,000 compounds were called active. This list was built around the results that the source calls inconclusive (neither active nor inactive); the mix of calls is not that of the screen. Calls come from the whole dose curve; as a rule, active = well fitted activation curve with a large enough effect; inconclusive = small, poorly fitted or top-dose-only effect; inactive = no such curve, though single readings can be large or run the other way. No potency is given beside an inconclusive call; the fits are too rough.
# Test: A quantitative high throughput screen for small molecules that induce DNA re-replication in MCF 10a normal breast cells. For activity, positive = re-replication: % of control where 0% means no effect. Note: nearly all actives have a fitted effect of over 50% in size.
# Conditions: MCF 10A DNA re-replication, Hoechst nuclear intensity, 48 h; activity, positive = re-replication: at 46.1 µM (top of the series)
# Potency is the fitted concentration of half-maximal effect; tags give direction and shape of the fitted curve.
Compound,"activity, positive = re-replication",Potency
COc1ccc(-c2nnc(SCC(=O)NC(=O)NCc3ccccc3)o2)cc1,inactive: -9.21%,
CC(C)(C)OC(=O)NCc1ccc(NC(=O)c2nc[nH]c2C(=O)NCCCNC(=O)c2[nH]cnc2C(=O)Nc2ccc(CNC(=O)OC(C)(C)C)cc2)cc1,,"inconclusive [activator, partial curve, poor fit]"
Cc1sc(NC(=O)c2ccccc2)c(C(c2ccc(Cl)cc2)N2CCN(CCO)CC2)c1C (stereo unspecified),,"inconclusive [activator, single point]"
CC(C)N(C(=O)[C@H]1C[C@H](CC(=O)NCc2cccc(C(F)(F)F)c2)C(=O)N2CCc3c([nH]c4cc(CCC(=O)N(C)C)ccc34)[C@]12C)C(C)C,,"inconclusive [activator, single point]"
Cc1ccc(NC(=O)C2CCCN(C(=O)c3ccc(Cl)cc3)C2)cc1C (stereo unspecified),inactive: 10.9%,
CN(C)N=Nc1ccc(-c2cn(Cc3ccccc3)cn2)cc1,inactive: 17%,
CCCc1ccc2oc(C(=O)NCCCN3CCOCC3)c(C)c2c1,,"inconclusive [activator, partial curve, poor fit]"
C=C(C)COc1ccc(-c2nc(N)ncc2Oc2ccccc2OC)c(O)c1,,"inconclusive [activator, single point]"
COC(=O)c1[nH]c2ccc(C)cc2c1NC(=O)CCN1CCN(Cc2ccc3c(c2)OCO3)CC1,inactive: -0.233%,
CCn1cc(C(=O)NCc2ccncc2)c(=O)c2cc(F)c(N3CCN(C(=O)c4ccco4)CC3)cc21,,"inconclusive [activator, partial curve, poor fit]"
CC1(c2nnc(-c3cccc(Cl)c3)o2)CC(c2cccnc2)=NO1 (stereo unspecified),inactive: 1.54%,
Cc1nc2ccc(-c3nc4cc(N)ccc4o3)cc2[nH]1,inactive: 19.9%,
CCOC(=O)c1cc2c(=O)n3ccccc3nc2n(C)c1=NC(=O)c1c(-c2c(F)cccc2Cl)noc1C,,active: 23.1 µM
COc1ccc(CCN2CC(C(=O)Nc3ccc(S(C)(=O)=O)cc3)CC2=O)cc1OC (stereo unspecified),inactive: -0.294%,
Cc1cccc(OCCc2c(C)[nH]c(=S)[nH]c2=O)c1,,"inconclusive [activator, partial curve]"
Nc1nc(-c2ccc(Cl)cc2)c(S(=O)(=O)c2ccccc2)s1,inactive: 7.52%,
CCOCCCn1c(=N)c(S(=O)(=O)c2ccc(C)cc2)cc2c(=O)n3cc(C)ccc3nc21,,"inconclusive [activator, full curve]"
CC(=O)Nc1ccc(-c2csc(NC(C)c3ccccc3)n2)cc1 (stereo unspecified),inactive: -1.86%,
NS(=O)(=O)c1ccc(O)c(NC(=O)c2ccc([N+](=O)[O-])o2)c1,,"inconclusive [activator, single point]"
Cc1ccc(C(=O)c2oc3ccccc3c2NC(=O)c2cc(-c3cc(C)ccc3O)n[nH]2)cc1,,active: 1.64 µM
Cc1oc(/C=N/NC(=O)CN(c2ccccc2Br)S(C)(=O)=O)cc1Br,,"inconclusive [activator, partial curve, poor fit]"
Cc1c(C=NCCOCc2ccccc2)cnn1C,inactive: -9.27%,

Compound,"activity, positive = re-replication",Potency
CCCCc1ccc(NC(=O)C(C)CC)cc1 (stereo unspecified),inactive: 1.2%,
COc1ccc(C(=O)Nc2ccc(C)cc2C(=O)c2ccccc2)c(OC)c1,,"inconclusive [activator, partial curve, poor fit]"
C[C@H]1COC(=O)[C@@H](CC(=O)OC(C)(C)C)C/C=C\C[C@@H](CC(=O)N[C@H](CO)Cc2ccccc2)C(=O)N1,,"inconclusive [activator, full curve, poor fit]"
O=C(O)Cc1c(-c2ccccc2)c2cc(Cl)ccc2[nH]c1=O,inactive: -2.1%,
Oc1ccccc1-c1cc(-c2ccco2)[nH]n1,,"inconclusive [activator, single point]"
C/C(CC(=O)Nc1ccccc1-c1ccccc1)=N\NC(=O)COc1ccc(C)cc1Br,,"inconclusive [activator, single point]"
CC1CCC/C(=N\NC(=S)Nc2ccccc2)C1 (stereo unspecified),inactive: 4.74%,
CC(C)[C@@H](C(=O)NC1CCN(Cc2ccccc2)CC1)N1C(=O)N2CCc3c([nH]c4ccccc34)[C@@]2(C)C1=O,,"inconclusive [activator, full curve, poor fit]"
COC(=O)c1ccc(CSc2nnc(NC(=O)c3cc4c(s3)CCCC4)s2)cc1,,"inconclusive [activator, single point]"
COCCn1c(SCC(=O)Nc2cccc(F)c2)nc2c([nH]c3ccccc32)c1=O,,"inconclusive [activator, single point]"
CCOCCCNC(=O)c1cccc(OC2CCN(S(C)(=O)=O)CC2)c1,inactive: -0.56%,
C=C(CN(C)C)C(=O)c1ccc(OC2OC(COC(C)=O)C(OC(C)=O)C(OC(C)=O)C2OC(C)=O)cc1 (stereo unspecified),,"inconclusive [activator, full curve]"
CCOc1cccc(CN2CCCC(N3CCc4ccccc4C3)C2)c1O (stereo unspecified),inactive: -0.19%,
Cc1cc(NC(=O)C(C)Sc2nc(-c3cccs3)nc3ccccc23)no1 (stereo unspecified),,"inconclusive [activator, single point]"
CCCCNC(=S)N(C)/N=C/c1ccccc1F,inactive: -1.16%,
Cc1ccccc1-c1cc2nc(C)c(Cl)c(=O)n2[nH]1,,"inconclusive [activator, partial curve]"
Cc1cc(-n2c(C)cc(C(=O)CSc3[nH]c(=O)cc(C(F)(F)F)c3C#N)c2C)no1,,"inconclusive [activator, single point]"
O=C(COc1ccccc1)Nc1c2c(nn1-c1ccccc1)CS(=O)(=O)C2,,"inconclusive [activator, partial curve, poor fit]"
CCOC(=O)c1c(C)n(-c2ccc(C)cc2)c2ccc(OCC(O)CNCC3CCCO3)cc12 (stereo unspecified),,"inconclusive [activator, partial curve]"
COc1ccc(CN2CCCCC2C(=O)Nc2ccc(OC)c(OC)c2)cc1OC (stereo unspecified),,"inconclusive [activator, partial curve, poor fit]"
CCN1C(=O)CCC(C(=O)O)C1c1ccc(OC)cc1 (stereo unspecified),,"inconclusive [activator, single point]"
COc1cccc(/C=N/Nc2snc(SC)c2C#N)c1O,inactive: 5.84%,

Compound,"activity, positive = re-replication",Potency
O=[N+]([O-])c1cc(C=Nc2ccc3ccccc3c2)ccc1Br,,"inconclusive [activator, single point]"
CC(C)CCN(C(=S)Nc1cccc(F)c1)C(C)c1cccs1 (stereo unspecified),,active: 16.4 µM
COC(=O)C1=C(C)N(c2ccc(OC)c(OC)c2)C(=O)C1,,"inconclusive [activator, single point]"
COc1ccc(N2CCN(C(=O)CCc3nnc4ccc(N5CCOCC5)nn34)CC2)cc1,inactive: 0.174%,
O=C(c1cc2ccccc2[nH]1)N(Cc1cccnc1)CC1CCCN(C2CCCCC2)C1 (stereo unspecified),,"inconclusive [activator, single point]"
O=C(N1CCN(c2ccccn2)CC1)N1c2ccccc2Sc2ccccc21,,"inconclusive [activator, full curve, poor fit]"
Cc1ccc2c(cnn2C(=O)CCCC(=O)NCc2ccc(Cl)cc2)c1,,"inconclusive [activator, single point]"
COc1c(CC=C(C)C)cc(C2CC(=O)c3c(O)cc(O)cc3O2)c(CC=C(C)C)c1O (stereo unspecified),,"inconclusive [activator, single point]"
CC(=O)Nc1ccc(S(=O)(=O)Nc2ccc3c(c2)OCCO3)cc1,inactive: 2.22%,
Cc1cccc(N(CC(=O)NC(C)(C)C)C(=O)CS(=O)CC(=O)Nc2ccc3c(c2)OCO3)c1 (stereo unspecified),,"inconclusive [activator, single point]"
COc1cc2c(cc1OC)[C@@H](NC(=O)Cc1ccc(F)cc1)[C@H](OCc1ccccc1)C2,,"inconclusive [activator, partial curve, poor fit]"
CCCS(=O)(=O)c1c(S(=O)(=O)CCC)c2cnccn2c1C(=O)c1ccc(OC)cc1,,"inconclusive [activator, single point]"
COc1ccc(CCNC(=O)CCC(=O)Nc2ccc3nc(N4CCN(C)CC4)cc(C)c3c2)cc1OC,,"inconclusive [activator, single point]"
Cc1oc(C(C)(C)C)cc1C(=O)Nc1ccc(C(=O)O)cc1,inactive: -9.68%,
CCN(CC)c1nc(N)c2c(N)nc(OC)cc2c1C#N,,"inconclusive [activator, single point]"
CC1Cc2ccccc2N1C(=O)CSc1nn2c(=O)c(C(C)(C)C)nnc2s1 (stereo unspecified),,"inconclusive [activator, single point]"
CC1CCCN(C(=O)CCCn2c(=S)[nH]c3ccccc3c2=O)C1 (stereo unspecified),,"inconclusive [activator, partial curve, poor fit]"
Cc1c(NS(=O)(=O)c2ccccc2)c(=O)n(-c2ccccc2)n1C,inactive: 6.72%,
Cc1ccc2c(cnn2C(=O)CCC(=O)NC2CCCC2)c1,,"inconclusive [activator, single point]"
Cc1ccc2nc(-c3ccc(N4C(=NC(=O)CCC(=O)O)SC5CS(=O)(=O)CC54)cc3)sc2c1 (stereo unspecified),,"inconclusive [activator, single point]"
O=C(CN(Cc1ccccc1)C(=O)c1cccc([N+](=O)[O-])c1)Nc1c(Cl)cc(Cl)cc1Cl,,"inconclusive [activator, single point]"
Cc1onc(-c2ccccc2Cl)c1C(=O)OCn1nnc2ccccc2c1=O,inactive: -8.4%,

# Source: PubChem BioAssay AID624296 (National Center for Advancing Translational Sciences (NCATS), 2012)
